# Experimental data from the supplement of paper PMC10338343.
# ± gives the standard deviation. In all, about 5,500 sequences were measured (“pre-steady-state target cleavage rate”: median about 0.1, highest 2% from about 0.64 on). Only a part is listed here, and it is no random draw.
# Test system: MIWI (PIWIL1) piRISC loaded with piRNA #2 (30 nt)
# Experiment: pre-steady-state target cleavage rate (min^-1); MIWI and MILI are mouse PIWI proteins and EfPiwi is from a freshwater sponge; tags in brackets are library labels; higher = faster piRNA-guided slicing of the target
# Settings: guide: piRNA #2 5'p-UUAGGUAACCCAGUAGAUCCAGAGGAAUUC; auxiliary factor: 500 nM mouse GTSF1
# Experimental: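 Cleave-'n-Seq: a library of target RNAs (target site embedded in constant flanks, ACAGCATTCCGCGTTAGTGATATCCG... 5' flank; DNA-blocked outside the site) at 0.1 nM was incubated with 1 nM active mouse MILI or MIWI piRISC (synthetic 5'-monophosphorylated piRNA guide) with or without 500 nM mouse GTSF1 at 33 °C for 1 min to 16 h. Uncleaved targets were sequenced and normalised to non-target controls, and the pooled three trials were fitted to a burst-and-steady-state model to give the pre-steady-state cleavage rate (min^-1; k3 is constrained to at most 1e-4). Sequence is the target site only; target names encode pairing extent (gX:gY) and contiguous / 1-mismatch / 2-mismatch / bulge geometry. Fits with R² ≤ 0 are excluded.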
row,Sequence,pre-steady-state target cleavage rate
1,CAAUUCCUCUCGAUCUACUGGGUUUCCUAA,0.631 ± 0.054
2,CUUAUCCUAUGGAUCUACUGGGUUACCUAA,0.524 ± 0.05
3,GAAUUCCUCAGGAUCUACUGCGUUACCUAA,0.518 ± 0.048
4,CUAUUCGUCUGGAUCUACUGGCUUACCUAA,0.0985 ± 0.029
5,CUUUUCCUCUGGAUCUACAGGGUUAGCUAA,0.113 ± 0.02
6,CUUUUCCUCUGGAUUCUACUGGGUUACCUAA,0.283 ± 0.043
7,CUUAUCCUCUGGAUGUACUGGGUUACCUAA,0.459 ± 0.051
8,CAAUUCCUCUGGAUCUACUGGGAUACCAAA,0.226 ± 0.066
9,CUUAACCUUUGGAUCUACUGGGUUACCUAA,0.301 ± 0.025
10,CUUAAGCACUGGUUCUACUGGGUUACCUAA,0.238 ± 0.021
11,CAAUUCCUCUGGAACUACUGGGUUAGCUAA,0.293 ± 0.05
12,CUAUUCCUCUGGAUCUACAGCGUUACCUAA,0.138 ± 0.024
13,CUUAAGGUCAUGGAUCUACUGGGUUACCUAA,0.237 ± 0.031
14,CUUAUCCUCUGGAUCUACAGGGUUACGUAA,0.264 ± 0.024
15,GAAUUCGACUGGAUCUACUGGGUUACCUAA,0.249 ± 0.039
16,CUUAACCUCUGUAUCUACUGGGUUACCUAA,0.347 ± 0.035
17,CUUAAGCUCUGGAUCUAGUGGGUUACCUUA,0.0301 ± 0.0077
18,CUUAAGGACUGGUUCUACUGGCUUACCUAA,0.0222 ± 0.021
19,GAAUUCCUCUGGAUCUACUGGGUUAUCUAA,0.504 ± 0.059
20,GAAUUCGUCUGGAUCUACUCGGUUACCUAA,0.043 ± 0.021

row,Sequence,pre-steady-state target cleavage rate
1,GAAUGUCCUCUGGAUCUACUGGGUUACCUAA,0.0571 ± 0.028
2,CUUAUCCUCUGCAUCUACUGGGAUACCUAA,0.124 ± 0.017
3,CAUUUCCUGUGGAUCUACUGGGUUACCUAA,0.4 ± 0.042
4,CUUAAGCUCUGGAUAUACUGGGUUACCUAA,0.223 ± 0.02
5,CUAUUCCUCUGGAUCUACUGGGUUACCUCAA,0.392 ± 0.06
6,CUUAAGGUCUGCAUCUACUGGGUUACCUAA,0.183 ± 0.027
7,CUUAACCUCUGGAUCUUCUGGGAUACCUAA,0.0792 ± 0.0094
8,CUUAAGGUGUGGAUCUACUGGGUAACCUAA,0.0163 ± 0.0095
9,CAAUUGCUCUGGUUCUACUGGGUUACCUAA,0.466 ± 0.038
10,GAAUUGCUCUGGAUCUAGUGGGUUACCUAA,0.0184 ± 0.0082
11,CUUUUCCUCGGGAUCUACUGGGUUACCUAA,0.306 ± 0.071
12,CUUAAGCUCUGGUUCUACUGGGUAACCUAA,0.0353 ± 0.0063
13,CUUAACUCUGGAUCUACUGGGUUACCUAA,0.0611 ± 0.012
14,GAAUUCCUCUGCAUCUACUCGGUUACCUAA,0.0997 ± 0.014
15,CAAUUCCUCUGGAUCUACUGGAUUACCUAA,0.338 ± 0.052
16,CUAUUCCUCUGGAUCUACUGGUUUACCUAA,0.245 ± 0.026
17,GAAUACCUCUGGAUCUACUGGGUUACCUAA,0.25 ± 0.049
18,GAAUUCCUAUGGAUCUACUGGGUUACCUAA,0.401 ± 0.036
19,CUUUUCCUCUGGAUCUACUGGUUUACCUAA,0.237 ± 0.018
20,CUUAACGUCUGGAUCUACUCGGUUACCUAA,0.0453 ± 0.018
